# Results published in the supplement of paper PMC8728848.
# The list shows a part of the results.
# B1: PX9961X-pdi-531-24-531 (Parabacteroides distasonis) (protein)
# chain: DLTEEIHSSVIAENYYNNAGEVMAAMMRPWGHFCGTMQVAQSPWSCNELSSDCAAWPQKGRHGYDNGDWIRLHRHQWIPTDGQVVDAWKKLFEGIGYANNFLTDTENIDFEALQVPMSKAQAQAEMRVYRAYCYWYVMDMFGTAPICEKIGEINPSSKSRAELFAWIEKELNESIPSLSESKTETYGRVSKWGAYALLARLYLNAEIYTGQARWDDCIAACDELAKGGFALDKKWNDTFRADNDKRSTEIIWSIVYDEVYAKGMGWYQRWLHYAHQTGWDLQSGPWNGLVTQPTFYDSFADNDLRKIEGFLIGKQYPRKVDENGNYYYDTTAEPLKGSEEYNGQDLVFVNYIKSMTEGEENSGARSIKYEIQPGTTGDMNNDWVMFRYSEVIYNKAEALMRKNGGKATQEVVDMINSVRQRSFKAEDWEKAKYTTATLTMDEFLAEKGREFAFEGIRRTDLVRFNKFVTTSWWDKTASNEPKRNIFPIPQRQLDANANLSPNEANSLF
# Tests used:
# [1] = target: Neu5Gc(a2-8)Neu5Gc(a2-6)Gal(b1-4)GlcNAc; assay: glycan array binding signal (z-score within array); higher = stronger binding; settings: glycan notation: IUPAC condensed, linker removed
# Summary of the method: (§1)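 Glycan array data came from 3228 arrays in the Consortium for Functional Glycomics database, and only arrays with an available protein sequence were kept. Glycan names were put into IUPAC-condensed notation, and columns mapping to the same glycan were averaged. The binding signal is a within-array Z-score, averaged across arrays of one protein sequence run at different concentrations or buffers and across linkers. A negative Z-score can be read as non-binding.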
# [2] = target: Neu5Gc(b2-6)Gal(b1-4)GlcNAc; assay: as above; settings: glycan notation: IUPAC condensed, linker removed
# Summary of the method: as §1
binder,measurement,setting,value
B1,glycan array binding signal (z-score),[1],-0.544
same,glycan array binding signal (z-score),[2],-0.272
